# The other results are listed elsewhere or left out.
# Experiments:
# Test in all cases: glycan array binding signal (z-score within array); higher = stronger binding
# Conditions in all cases: glycan notation: IUPAC condensed, linker removed; mutation: E227A
# [1] = target: GlcNAc(a1-6)Gal(b1-4)GlcNAc
# In short: (§1)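 Glycan array binding is given as a within-array Z-score, which can be read as non-binding when negative. The arrays, 3228 of them, came from the Consortium for Functional Glycomics database and were retained only where the protein sequence was available. Z-scores were averaged across arrays of the same protein sequence at different concentrations or buffers and across linkers.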
# [2] = target: GlcNAc(b1-2)Gal(b1-3)GalNAc
# In short: as §1
# [3] = target: GlcNAc(b1-2)Man(a1-3)[GlcNAc(b1-2)Man(a1-6)]Man(b1-4)GlcNAc(b1-4)GlcNAc
# In short: as §1
# [4] = target: GlcNAc(b1-2)Man(a1-3)[GlcNAc(b1-2)Man(a1-6)]Man(b1-4)GlcNAc(b1-4)[Fuc(a1-6)]GlcNAc
# In short: as §1
# [5] = target: GlcNAc(b1-2)Man(a1-3)[GlcNAc(b1-4)][GlcNAc(b1-2)Man(a1-6)]Man(b1-4)GlcNAc(b1-4)GlcNAc
# In short: as §1
# [6] = target: GlcNAc(b1-2)Man(a1-3)[GlcNAc(b1-4)][GlcNAc(b1-2)Man(a1-6)]Man(b1-4)GlcNAc(b1-4)[Fuc(a1-6)]GlcNAc
# In short: as §1
# [7] = target: GlcNAc(b1-2)[GlcNAc(b1-4)]Man(a1-3)[GlcNAc(b1-2)Man(a1-6)]Man(b1-4)GlcNAc(b1-4)GlcNAc
# In short: as §1
# [8] = target: GlcNAc(b1-2)[GlcNAc(b1-4)]Man(a1-3)[GlcNAc(b1-4)][GlcNAc(b1-2)Man(a1-6)]Man(b1-4)GlcNAc(b1-4)GlcNAc
# In short: as §1
# [9] = target: GlcNAc(b1-2)[GlcNAc(b1-4)]Man(a1-3)[GlcNAc(b1-4)][GlcNAc(b1-2)[GlcNAc(b1-6)]Man(a1-6)]Man(b1-4)GlcNAc(b1-4)GlcNAc
# In short: as §1
# [10] = target: GlcNAc(b1-2)[GlcNAc(b1-4)]Man(a1-3)[GlcNAc(b1-4)][GlcNAc(b1-2)[GlcNAc(b1-6)]Man(a1-6)]Man(b1-4)GlcNAc(b1-4)[Fuc(a1-6)]GlcNAc
# In short: as §1
# [11] = target: GlcNAc(b1-2)[GlcNAc(b1-6)]Man(a1-6)[GlcNAc(b1-2)Man(a1-3)]Man(b1-4)GlcNAc(b1-4)GlcNAc
# In short: as §1
# [12] = target: GlcNAc(b1-2)[GlcNAc(b1-6)]Man(a1-6)[GlcNAc(b1-2)Man(a1-3)]Man(b1-4)GlcNAc(b1-4)[Fuc(a1-6)]GlcNAc
# In short: as §1
# [13] = target: GlcNAc(b1-2)[GlcNAc(b1-6)]Man(a1-6)[GlcNAc(b1-4)][GlcNAc(b1-2)Man(a1-3)]Man(b1-4)GlcNAc(b1-4)GlcNAc
# In short: as §1
# GlcNAc(b1-3)Fuc = target: GlcNAc(b1-3)Fuc
# In short: as §1
# GlcNAc(b1-3)Gal = target: GlcNAc(b1-3)Gal
# In short: as §1
# [14] = target: GlcNAc(b1-3)Gal(b1-3)GalNAc
# In short: as §1
# GlcNAc(b1-3)Gal(b1-4)Glc = target: GlcNAc(b1-3)Gal(b1-4)Glc
# In short: as §1
# [15] = target: GlcNAc(b1-3)Gal(b1-4)GlcNAc
# In short: as §1
# [16] = target: GlcNAc(b1-3)Gal(b1-4)GlcNAc(b1-2)Man(a1-3)[GlcNAc(b1-3)Gal(b1-4)GlcNAc(b1-2)Man(a1-6)]Man(b1-4)GlcNAc(b1-4)GlcNAc
# In short: as §1
# [17] = target: GlcNAc(b1-3)Gal(b1-4)GlcNAc(b1-2)Man(a1-3)[GlcNAc(b1-3)Gal(b1-4)GlcNAc(b1-2)Man(a1-6)]Man(b1-4)GlcNAc(b1-4)[Fuc(a1-6)]GlcNAc
# In short: as §1
# [18] = target: GlcNAc(b1-3)Gal(b1-4)GlcNAc(b1-2)[GlcNAc(b1-3)Gal(b1-4)GlcNAc(b1-6)]Man(a1-6)[GlcNAc(b1-3)Gal(b1-4)GlcNAc(b1-2)Man(a1-3)]Man(b1-4)GlcNAc(b1-4)GlcNAc
# In short: as §1
# [19] = target: GlcNAc(b1-3)Gal(b1-4)GlcNAc(b1-3)Gal(b1-4)GlcNAc
# In short: as §1
# [20] = target: GlcNAc(b1-3)Gal(b1-4)GlcNAc(b1-3)Gal(b1-4)GlcNAc(b1-2)Man(a1-3)[GlcNAc(b1-3)Gal(b1-4)GlcNAc(b1-3)Gal(b1-4)GlcNAc(b1-2)Man(a1-6)]Man(b1-4)GlcNAc(b1-4)GlcNAc
# In short: as §1
# [21] = target: GlcNAc(b1-3)Gal(b1-4)GlcNAc(b1-3)Gal(b1-4)GlcNAc(b1-2)Man(a1-3)[GlcNAc(b1-3)Gal(b1-4)GlcNAc(b1-3)Gal(b1-4)GlcNAc(b1-2)Man(a1-6)]Man(b1-4)GlcNAc(b1-4)[Fuc(a1-6)]GlcNAc
# In short: as §1
# [22] = target: GlcNAc(b1-3)Gal(b1-4)GlcNAc(b1-3)Gal(b1-4)GlcNAc(b1-2)[GlcNAc(b1-3)Gal(b1-4)GlcNAc(b1-3)Gal(b1-4)GlcNAc(b1-6)]Man(a1-6)[GlcNAc(b1-3)Gal(b1-4)GlcNAc(b1-3)Gal(b1-4)GlcNAc(b1-2)Man(a1-3)]Man(b1-4)GlcNAc(b1-4)[Fuc(a1-6)]GlcNAc
# In short: as §1
# [23] = target: GlcNAc(b1-3)Gal(b1-4)GlcNAc(b1-3)Gal(b1-4)GlcNAc(b1-3)Gal(b1-4)GlcNAc(b1-2)Man(a1-3)[GlcNAc(b1-3)Gal(b1-4)GlcNAc(b1-3)Gal(b1-4)GlcNAc(b1-3)Gal(b1-4)GlcNAc(b1-2)Man(a1-6)]Man(b1-4)GlcNAc(b1-4)GlcNAc
# In short: as §1
# [24] = target: GlcNAc(b1-3)Gal(b1-4)GlcNAc(b1-3)Gal(b1-4)GlcNAc(b1-3)Gal(b1-4)GlcNAc(b1-2)Man(a1-3)[GlcNAc(b1-3)Gal(b1-4)GlcNAc(b1-3)Gal(b1-4)GlcNAc(b1-3)Gal(b1-4)GlcNAc(b1-2)Man(a1-6)]Man(b1-4)GlcNAc(b1-4)[Fuc(a1-6)]GlcNAc
# In short: as §1
# [25] = target: GlcNAc(b1-3)Gal(b1-4)GlcNAc(b1-3)Gal(b1-4)GlcNAc(b1-3)Gal(b1-4)GlcNAc(b1-2)[GlcNAc(b1-3)Gal(b1-4)GlcNAc(b1-3)Gal(b1-4)GlcNAc(b1-3)Gal(b1-4)GlcNAc(b1-6)]Man(a1-6)[GlcNAc(b1-3)Gal(b1-4)GlcNAc(b1-3)Gal(b1-4)GlcNAc(b1-3)Gal(b1-4)GlcNAc(b1-2)Man(a1-3)]Man(b1-4)GlcNAc(b1-4)[Fuc(a1-6)]GlcNAc
# In short: as §1
# [26] = target: GlcNAc(b1-3)Gal(b1-4)GlcNAc(b1-3)Gal(b1-4)GlcNAc(b1-3)Gal(b1-4)GlcNAc(b1-3)Gal(b1-4)GlcNAc(b1-2)Man(a1-3)[GlcNAc(b1-3)Gal(b1-4)GlcNAc(b1-3)Gal(b1-4)GlcNAc(b1-3)Gal(b1-4)GlcNAc(b1-3)Gal(b1-4)GlcNAc(b1-2)Man(a1-6)]Man(b1-4)GlcNAc(b1-4)GlcNAc
# In short: as §1
# [27] = target: GlcNAc(b1-3)Gal(b1-4)GlcNAc(b1-3)Gal(b1-4)GlcNAc(b1-3)Gal(b1-4)GlcNAc(b1-3)Gal(b1-4)GlcNAc(b1-2)Man(a1-3)[GlcNAc(b1-3)Gal(b1-4)GlcNAc(b1-3)Gal(b1-4)GlcNAc(b1-3)Gal(b1-4)GlcNAc(b1-3)Gal(b1-4)GlcNAc(b1-2)Man(a1-6)]Man(b1-4)GlcNAc(b1-4)[Fuc(a1-6)]GlcNAc
# In short: as §1
binder,measurement,setting,value
"Epa1-NP-mutant-E227A (Candida glabrata), Q6VBJ0 (protein) MILNPALFLNKCVCIYTTLILLLLTNGGYATSSNDISLASKDPTTFPLGCSPDITTPKKGLSMELYSYDFRKKGSYPCWDAAYLDPNYPRTGYKSHRLLAKVDGVTGNINFYYHATKGCTPQLGHLPASYNYPKPLTMTNFTMLLYGYFRPKVTGFHTFTISADDLLFVNFGAGNAFDCCRRDSSADHFGNYQAYAIWGSKTAKDELTVHLDAGVYYPIRLFYNNRAYDGALSFTFKTESNENTVSDFSEYFFSLDDTEEGCPGLISYDSSCASVKTSKIIGIDYHTETPNENLVPITKTIYHLGIPCTGTTTTPLCGSGFYDPLANKCVTINTSSTSSVTKTTSHTTSKEVSFHSSISSQKTLIPKSIPSPYGPIKSQSIPTEMETSSEISSSEYAFSDVISTPSHSPYTKKHSSLNSSSYTSTVIHSLTSYSISQGIFSTSLSEQNITSKSSTDKFSTATSMSNNITQSSIIISQFSTNNENYTTTSMHTSSDKISTETLNNSISTTTSILFSNSSTILKNNTTIISSDKDTHYHPVNPTIVCSTNKTEIICASITQPSISNSNNHWSSSVLKFNSTTVRSTLPSSAGSNETSINVPFSSSTESNTSTSSTSTSNSKMVRSTLPSSAGSNETSISVPFSSSTESNTSTSSTSTSNSKMVRSTLPSSAGSNETSINVPFSSSTESNTSTSSTSTSNSKTVRSTPFSSAGIIMTSLSQRNNKSASSYASSNSKCYNTADSCRKVHSTPSYLLTSSYTSEGVDYDCSLVSTKLKINDTNCVNNKHTTKSCLKTSVTTTIPTLEIKTARKSSSNTIGLHSYPTSSPNKSISSAPIIGYISSFKTIKTASPSYQTSDLTTITTITSLNNPGSTAVENTHESNDKSRKTSSNDISSKHSVIKETKDAVESSNKSHQTNTLKCSSIIIASSSHNSYESLGGTTLTLTLSKVYSPQNNDTLPFLEISEVNPSRTVLPESSKMMQYLTSTEERNKTARNTIATNIVSISTFHFEGEGNAIRMGYTQLLLMLIGIIVMNIGT",glycan array binding signal (z-score),[1],0.396
same,glycan array binding signal (z-score),[2],-0.184
same,glycan array binding signal (z-score),[3],-0.191
same,glycan array binding signal (z-score),[4],-0.177
same,glycan array binding signal (z-score),[5],-0.226
same,glycan array binding signal (z-score),[6],-0.194
same,glycan array binding signal (z-score),[7],-0.188
same,glycan array binding signal (z-score),[8],-0.177
same,glycan array binding signal (z-score),[9],-0.19
same,glycan array binding signal (z-score),[10],-0.172
same,glycan array binding signal (z-score),[11],-0.207
same,glycan array binding signal (z-score),[12],-0.165
same,glycan array binding signal (z-score),[13],-0.207
same,glycan array binding signal (z-score),GlcNAc(b1-3)Fuc,-0.185
same,glycan array binding signal (z-score),GlcNAc(b1-3)Gal,-0.221
same,glycan array binding signal (z-score),[14],-0.176
same,glycan array binding signal (z-score),GlcNAc(b1-3)Gal(b1-4)Glc,-0.205
same,glycan array binding signal (z-score),[15],-0.206
same,glycan array binding signal (z-score),[16],-0.172
same,glycan array binding signal (z-score),[17],-0.157
same,glycan array binding signal (z-score),[18],-0.191
same,glycan array binding signal (z-score),[19],-0.198
same,glycan array binding signal (z-score),[20],-0.183
same,glycan array binding signal (z-score),[21],-0.143
same,glycan array binding signal (z-score),[22],-0.163
same,glycan array binding signal (z-score),[23],-0.193
same,glycan array binding signal (z-score),[24],-0.136
same,glycan array binding signal (z-score),[25],-0.17
same,glycan array binding signal (z-score),[26],-0.193
same,glycan array binding signal (z-score),[27],-0.197

# — the supplement of paper PMC8728848
